According to PubChem BioAssay (NCATS):
Inconclusive results, whose numbers are uncertain, are shown with a selection of clear calls. For part of these data: No potency is given beside an inconclusive call; the fits are too rough. Active and inactive are the calls of the source. Unless noted, calls come from the whole dose curve; as a rule, active = well fitted curve in the direction sought with a large enough effect; inconclusive = small, poorly fitted or top-dose-only effect, or another doubt; inactive = no such curve, though single readings can be large; an effect the other way counts as inactive or inconclusive.

Experiments:
Furin (Homo sapiens) = Furin (Homo sapiens) (UniProt P09958); test: Furin counterscreen qHTS for Zika virus inhibitors (AID 1347149); settings: furin enzymatic counterscreen, fluorogenic substrate; activity change, negative = inhibition: at 114 µM (top of the series); note: nearly all actives have a fitted effect of over 70% in size; note: potency is the fitted concentration of half-maximal effect;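 for activity change, negative = inhibition: purified recombinant full-length human furin enzyme at 5 nM; fluorescence gain from furin cutting a BOC-RVRR-AMC peptide substrate over 15 min; top concentration of the series differs between compounds; plate controls were no-inhibitor control for no effect and no-enzyme control for full effect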
Method in brief: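 Fluorogenic cleavage of BOC-RVRR-AMC (2 microM final, Km ~15 µM) was monitored (ex 340, em 450 nm) at 37C after 15 min RT preincubation of 5 nM furin with compounds in HEPES pH 7.0 buffer with CaCl2 and Triton X-100. Percent inhibition was fitted to a 4-parameter Hill curve.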

[1] = ZIKV-mCherry secondary qHTS for Zika virus inhibitors (AID 1347158); settings: Vero cells, ZIKV-mCherry infection imaging, 48-72 h; activity change, negative = inhibition: at 49.2 µM (top of the series); note: potency is the fitted concentration of half-maximal effect; for activity change, negative = inhibition: top concentration of the series differs between compounds
Method in brief: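 Vero cells, 5,000/well, plated overnight at 37 °C, then compound added and infected with recombinant ZIKV-mCherry at MOI 1 for 48-72 h. PFA-fixed, Hoechst nuclear stain, high-content imaging; cells with mCherry intensity above 450 RFU scored infected, reported as percent infection.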

[2] = Confirmatory screen NINDS Rhodamine qHTS for Zika virus inhibitors (AID 1347161); note: potency is the fitted concentration of half-maximal effect; nearly all actives have a fitted effect of over 60% in size
Method in brief: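 Percent inhibition, normalized to uninhibited and enzyme-free controls, is fitted to a 4-parameter Hill equation. Fluorescence change comes from a 15-min cleavage of 1.5 microM bis-peptide Rhodamine110 substrate by 25 nM linked NS2B-NS3 at room temperature.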

[3] = test system: Zika virus NS2B-NS3 protease (linked); test: 384 well plate NINDS AMC confirmatory qHTS for Zika virus inhibitors (AID 1347163); note: potency is the fitted concentration of half-maximal effect; nearly all actives have a fitted effect of over 50% in size
Method in brief: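 Linked protease 5/30/60 nM final; cpds up to 1 mM final, ~15 min preinc. Substrate Ac-VKTGKR-AMC 30 microM final. RT, dark, 25 min; FI ex 355/em 460; normalized to no-enzyme/no-inhibitor ctrls.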

[4] = test system: Zika virus NS2B-NS3 protease (linked construct); test: 384 well plate NINDS Rhodamine confirmatory qHTS for Zika virus inhibitors (AID 1347164);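 note: fluorescence from protease cleavage of Ac-LKRR-rhodamine 110 substrate; nearly all actives have a fitted effect of over 65% in size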; note: potency is the fitted concentration of half-maximal effect;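 for activity change, negative = inhibition: top concentration of the series differs between compounds; plate controls were no-inhibitor control for no effect and no-enzyme control for full effect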
Method in brief: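 Enzyme (final 5/30/60 nM) + cpd (DMSO), ~15 min; add Ac-LKRR-Rd 10 microM final; 25 min RT, dark; FI ex 485/em 538; normalized to no-enzyme, no-inhibitor ctrls; aprotinin intraplate ctrl.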

[5] = Tertiary RLuc qRT-PCR qHTS assay for Zika virus inhibitors (AID 1347169); note: nearly all actives have a fitted effect of over 55% in size; note: potency is the fitted concentration of half-maximal effect; for activity change, negative = inhibition: top concentration of the series differs between compounds; % is set by controls: 0 for no effect and ±100 for the full control effect
Method in brief: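 Vero, 1,000 cells/well, o/n 37 C; cpd pinned in DMSO; ZIKV-RLuc Cambodian, MOI 1-2, 48-72 h 37 C; live-cell RLuc substrate, lum read at 1-1.5 h.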

[6] = Confirmatory screen GU Rhodamine qHTS for Zika virus inhibitors qHTS (AID 1347157); note: nearly all actives have a fitted effect of over 70% in size; note: potency is the fitted concentration of half-maximal effect;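 for activity change, negative = inhibition: plate controls were no-inhibitor wells for no effect and no-enzyme wells for full effect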
Method in brief: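 Buffer 10 mM Tris-HCl pH 8.0, 0.01% Tween 20. Unlinked protease 25 nM; compound preincubation 15 min, RT, protected from light. Substrate Rhod110, 1.5 microM; ~15% conversion in 15 min.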

[7] = test system: Zika virus NS2B-NS3 protease (unlinked complex); test: Primary screen GU Rhodamine qHTS for Zika virus inhibitors: Unlinked NS2B-NS3 protease assay (AID 1347159); note: potency is the fitted concentration of half-maximal effect; nearly all actives have a fitted effect of over 60% in size
Method in brief: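 A qHTS format was used, with compound concentrations ranging up to 114 microM. Each compound was preincubated with 25 nM NS2B-NS3 protease, and the substrate was then added at 1.5 microM. Curves were fitted with a 4-parameter Hill model.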

[8] = test system: Zika virus NS2B-NS3 protease (linked construct); test: Primary screen NINDS Rhodamine qHTS for Zika virus inhibitors (AID 1347160); note: potency is the fitted concentration of half-maximal effect; nearly all actives have a fitted effect of over 55% in size
Method in brief: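 Kinetic fluorescence (Ex 480 nm, Em 540 nm) over 15 min with 1.5 microM Rhodamine110 peptide and 25 nM linked protease.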

[9] = Primary qHTS for inhibitors of nuclear receptor binding SET domain protein 2 (NSD2) in an isogenic RCH-ACV NSD2 p.E1099K mutant (9B) (AID 1645876); note: potency is the fitted concentration of half-maximal effect; nearly all actives have a fitted effect of over 70% in size
[10] = Primary qHTS for inhibitors of nuclear receptor binding SET domain protein 2 (NSD2) in an RCH-ACV wild type WT cells (2C) (AID 1645877); note: potency is the fitted concentration of half-maximal effect; nearly all actives have a fitted effect of over 70% in size
[11] = biological target: Glutathione peroxidase 1 (Homo sapiens) (UniProt P07203); test: Primary qHTS Assay for Inhibitors of Recombinant Selenoprotein Glutathione Peroxidase 1 (GPX1) (AID 1845191); note: potency is the fitted concentration of half-maximal effect; nearly all actives have a fitted effect of over 65% in size
Method in brief: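 GR-coupled assay: compounds preincubated 30 min at room temperature with GPX1, then reaction started with CHP; final 10 nM GPX1, 1 mM GSH, 0.5 mM CHP, 0.5 mM NADPH, 100 nM GR, 0.01% BSA, pH 7.5 Tris buffer. NADPH fluorescence (340/450 nm) read at 0 and 15 min.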

[12] = biological target: Luciferin 4-monooxygenase (Photinus pyralis) (UniProt P08659); test: Primary firefly luciferase (FLuc) qHTS assay for identification of artifact compounds. (AID 1845220);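 note: plate controls were DMSO vehicle for no effect and no enzyme for full effect; nearly all actives have a fitted effect of over 60% in size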
Method in brief: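 Titrated compounds were incubated 15 min at RT, protected from light, with luciferin and ATP at 10 uM; reaction started with 10 nM FLuc, luminescence imaged at 5 min, and concentration-response fitted by Hill equation.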

[13] = Primary redox qHTS assay for identification of artifact compounds. (AID 1845223); note: potency is the fitted concentration of half-maximal effect
Method in brief: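 Amplex Red (25 uM) and HRP (250 mU/mL) in HBSS, with compounds for 15 min, then 250 uM DTT for 30 min, room temperature, dark. Fluorescence 525/598 nm read; normalized to DMSO and 10 uM DA3003; Hill fit.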

[14] = qHTS Assay for Lipid Storage Modulators (AID 1519; calls by dose curve; note: % is set by controls: 0 for no effect and ±100 for the full control effect); settings: Drosophila S3 cells, BODIPY lipid droplet/cell ratio, laser cytometry, cells loaded with oleic acid; activity change, negative = inhibition: at 57.5 µM (top of the series) unless noted
Method in brief: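 Cells seeded at 5,000 per well were treated with compounds over a concentration series and loaded with oleic acid (400 uM, as added). Lipid droplet fluorescence (488 nm excitation, 500-530 nm channel) was read by laser-scanning cytometry and normalized to 20 uM Triacsin C.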

[15] = biological target: Endonuclease 4 (Escherichia coli (strain K12)) (UniProt P0A6C1); test: Counterscreen for APE1 Inhibitors: qHTS Assay for Inhibitors of Endonuclease IV (AID 2565); note: potency is the fitted concentration of half-maximal effect
Method in brief: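 Cleavage of a quenched abasic-site DNA duplex (50 nM, 5'-TAMRA, 3'-BHQ-2) by 2 nM enzyme is followed as fluorescence increase. Compounds are preincubated with enzyme 15 min at room temperature before substrate addition.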

[16] = biological target: DNA repair nuclease/redox regulator APEX1 (Homo sapiens) (UniProt P27695); test: Confirmation qHTS Assay for Inhibitors of the Human Apurinic/apyrimidinic Endonuclease 1 (APE1) (AID 2572); note: potency is the fitted concentration of half-maximal effect; nearly all actives have a fitted effect of over 30% in size
Method in brief: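 Readout: kinetic fluorescence (Ex 525, Em 598 nm) from APE1 incision of a 5'-TAMRA, 3'-BHQ-2 duplex containing a THF abasic site at 50 nM final. Compound preincubation 15 min, room temperature.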

[17] = biological target: Ubiquitin carboxyl-terminal hydrolase 1 (Homo sapiens) (UniProt O94782); test: Inhibitors of USP1/UAF1: Pilot qHTS (AID 504865);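 note: rhodamine fluorescence freed from ubiquitin-rhodamine substrate followed over time; potency is the fitted concentration of half-maximal effect; nearly all actives have a fitted effect of over 35% in size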
Method in brief: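 In 50mM HEPES pH 7.8 containing 0.5mM EDTA, 1mM TCEP, 0.1 mg/ml BSA and 0.01% Tween-20, 1nM USP1/UAF1 is exposed to compound for 15 min, then Ub-Rho (150nM final) is added and fluorescence is read over time.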
Tags give direction and shape of the fitted curve.

Sequence of UniProt P09958 (P09958 whole entry, looked up): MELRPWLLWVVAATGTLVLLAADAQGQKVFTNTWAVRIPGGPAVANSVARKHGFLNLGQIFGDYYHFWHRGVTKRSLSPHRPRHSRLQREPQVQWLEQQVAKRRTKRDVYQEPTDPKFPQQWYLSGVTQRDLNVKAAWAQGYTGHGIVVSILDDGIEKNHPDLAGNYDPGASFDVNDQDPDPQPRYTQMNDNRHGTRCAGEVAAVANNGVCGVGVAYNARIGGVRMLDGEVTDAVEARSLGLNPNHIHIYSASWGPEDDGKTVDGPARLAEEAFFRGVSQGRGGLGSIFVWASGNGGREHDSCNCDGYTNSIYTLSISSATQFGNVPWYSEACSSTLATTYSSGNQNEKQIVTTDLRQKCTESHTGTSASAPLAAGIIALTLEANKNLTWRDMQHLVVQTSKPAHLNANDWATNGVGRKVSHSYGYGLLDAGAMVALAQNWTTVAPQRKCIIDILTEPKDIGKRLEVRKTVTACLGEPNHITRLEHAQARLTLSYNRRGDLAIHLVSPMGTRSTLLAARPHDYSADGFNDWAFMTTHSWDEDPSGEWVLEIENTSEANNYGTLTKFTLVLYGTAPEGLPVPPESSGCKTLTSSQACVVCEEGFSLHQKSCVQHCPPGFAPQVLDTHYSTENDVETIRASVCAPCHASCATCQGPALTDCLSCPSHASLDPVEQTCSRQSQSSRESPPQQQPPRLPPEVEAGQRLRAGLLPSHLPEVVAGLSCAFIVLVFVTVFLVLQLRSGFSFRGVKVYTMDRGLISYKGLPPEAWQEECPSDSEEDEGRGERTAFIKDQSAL
Sequence of UniProt P07203 (P07203 whole entry, looked up): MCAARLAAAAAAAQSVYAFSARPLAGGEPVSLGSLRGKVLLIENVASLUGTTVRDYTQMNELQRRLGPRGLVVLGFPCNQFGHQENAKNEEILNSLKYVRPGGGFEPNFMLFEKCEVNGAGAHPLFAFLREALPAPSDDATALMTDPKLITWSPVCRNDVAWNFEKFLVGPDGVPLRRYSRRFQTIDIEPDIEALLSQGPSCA
Sequence of UniProt P27695 (P27695 whole entry, looked up): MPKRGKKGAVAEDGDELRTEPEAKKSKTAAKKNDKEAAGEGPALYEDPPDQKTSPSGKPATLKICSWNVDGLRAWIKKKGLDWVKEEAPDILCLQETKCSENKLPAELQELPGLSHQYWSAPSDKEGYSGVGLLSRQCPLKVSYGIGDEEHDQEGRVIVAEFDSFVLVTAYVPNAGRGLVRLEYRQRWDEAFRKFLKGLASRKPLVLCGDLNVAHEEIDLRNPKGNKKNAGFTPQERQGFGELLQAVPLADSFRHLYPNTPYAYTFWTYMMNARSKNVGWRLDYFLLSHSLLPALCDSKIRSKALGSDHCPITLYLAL
Sequence of UniProt O94782 (O94782 whole entry, looked up): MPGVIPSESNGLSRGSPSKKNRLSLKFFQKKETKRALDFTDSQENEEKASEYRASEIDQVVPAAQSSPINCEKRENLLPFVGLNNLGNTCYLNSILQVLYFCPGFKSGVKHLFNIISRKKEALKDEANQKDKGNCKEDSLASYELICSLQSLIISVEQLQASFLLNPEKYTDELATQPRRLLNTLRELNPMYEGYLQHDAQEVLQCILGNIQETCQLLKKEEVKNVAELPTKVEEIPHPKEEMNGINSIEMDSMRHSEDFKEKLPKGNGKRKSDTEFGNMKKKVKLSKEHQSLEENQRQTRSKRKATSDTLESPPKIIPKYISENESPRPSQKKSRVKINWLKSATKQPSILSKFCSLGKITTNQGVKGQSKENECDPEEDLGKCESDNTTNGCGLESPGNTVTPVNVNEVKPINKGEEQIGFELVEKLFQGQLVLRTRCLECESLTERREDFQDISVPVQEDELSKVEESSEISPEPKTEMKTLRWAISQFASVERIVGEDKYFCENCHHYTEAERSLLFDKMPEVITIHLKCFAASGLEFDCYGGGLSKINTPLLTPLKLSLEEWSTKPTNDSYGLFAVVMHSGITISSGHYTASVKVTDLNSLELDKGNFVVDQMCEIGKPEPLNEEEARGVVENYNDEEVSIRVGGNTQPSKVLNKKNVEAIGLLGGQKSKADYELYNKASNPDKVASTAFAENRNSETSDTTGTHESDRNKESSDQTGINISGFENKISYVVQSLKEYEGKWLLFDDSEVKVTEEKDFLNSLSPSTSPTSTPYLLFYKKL

COc1ccc2c(c1)Oc1nc(-c3ccc(C)s3)nc(SCC(=O)Nc3cccc(C(=O)O)c3)c1C2
Potency (Furin (Homo sapiens)): inconclusive [inhibitor, partial curve, poor fit]
Potency [1]: inactive
Potency [2]: active: 5.62 µM
Potency [3]: inconclusive [inhibitor, full curve]
Potency [4]: inconclusive [inhibitor, full curve, poor fit]

CCOC(=O)c1ccc(N2C(=O)c3n[nH]c(-c4cccs4)c3C2c2ccc(Cl)cc2Cl)cc1 (configuration not stated)
Potency (Furin (Homo sapiens)): inconclusive [inhibitor, partial curve, poor fit]
Potency [1]: inconclusive [inhibitor, full curve, poor fit]
Potency [3]: inconclusive [inhibitor, full curve, poor fit]
Potency [5]: inconclusive [inhibitor, partial curve, poor fit]

CC(=O)Nc1ccc(S(=O)(=O)O)c2cc(S(=O)(=O)O)c(N=Nc3ccc(N=Nc4ccc(S(=O)(=O)O)cc4)c4ccc(S(=O)(=O)O)cc34)c(O)c12
Potency (Furin (Homo sapiens)): inconclusive [inhibitor, single point]
Potency [1]: inconclusive [inhibitor, full curve]
Potency [2]: active: 2.51 µM
Potency [4]: active: 3.98 µM

CCOC(=O)c1ccc(Nc2nc3ccccc3nc2NS(=O)(=O)c2ccc(Cl)cc2)cc1
Potency (Furin (Homo sapiens)): inactive
Potency [1]: inconclusive [inhibitor, full curve, poor fit]
Potency [4]: inconclusive [inhibitor, partial curve, poor fit]
Potency [5]: inconclusive [inhibitor, partial curve, poor fit]

Cc1c(C2(c3cc(C(C)C)c(O)c(Br)c3C)OS(=O)(=O)c3ccccc32)cc(C(C)C)c(O)c1Br
Potency (Furin (Homo sapiens)): inconclusive [inhibitor, single point]
Potency [1]: inactive
Potency [3]: active: 126 µM
Potency [5]: inconclusive [inhibitor, full curve, poor fit]

CC(C)(C)c1ccc(C(=O)Nc2ccc(C(=O)OCc3cc(=O)n4ccsc4n3)cc2)cc1
Potency (Furin (Homo sapiens)): inconclusive [inhibitor, full curve]
Potency [6]: inactive
Potency [2]: inconclusive [inhibitor, single point]
Potency [5]: inconclusive [inhibitor, partial curve, poor fit]

COc1cc(C)c(C(=O)OC2C(C)OC(OC3CCC(C)C4C3C=C(C)C3/C(C)=C\CC/C(C)=C/C5(C)C=C(C(=O)O)C(C)CC56OC(=O)/C(=C(\O)C34C)C6=O)C(O)C2O)c(OC)c1 (configuration not stated)
Potency (Furin (Homo sapiens)): inconclusive [inhibitor, partial curve, poor fit]
Potency [1]: inconclusive [inhibitor, full curve, poor fit]
Potency [7]: active: 1.26 µM
Potency [8]: active: 2.47 µM
Potency [3]: inconclusive [inhibitor, full curve, poor fit]
Potency [4]: inconclusive [inhibitor, full curve, poor fit]
Potency [5]: inconclusive [inhibitor, full curve, poor fit]
Potency [9]: inconclusive [inhibitor, single point]
Potency [10]: inconclusive [inhibitor, single point]
Potency [11]: inconclusive [inhibitor, partial curve, poor fit]
Potency [12]: inactive
Potency [13]: inconclusive [activator, partial curve, poor fit]

O=S(=O)(Nc1ccc(Cl)cc1)c1ccc(NS(=O)(=O)c2ccc3c(c2)OCCO3)cc1
Potency (Furin (Homo sapiens)): inactive
Potency [1]: inconclusive [inhibitor, full curve, poor fit]
Potency [3]: inconclusive [inhibitor, full curve, poor fit]
Potency [5]: inconclusive [inhibitor, single point]

O=C(Nc1cccc(C(=O)OCc2cc(=O)n3nc(C4CC4)sc3n2)c1)c1ccc(F)cc1
Potency (Furin (Homo sapiens)): inactive
Potency [6]: inconclusive [inhibitor, partial curve]
Potency [4]: inconclusive [inhibitor, full curve, poor fit]

CCS(=O)(=O)c1cccc(C(=O)Nc2ccc(-c3nc4ccccc4s3)c(O)c2)c1
Potency (Furin (Homo sapiens)): inconclusive [inhibitor, partial curve]
Potency [1]: inconclusive [inhibitor, full curve, poor fit]

CC(C)c1nn2c(=O)cc(COC(=O)c3ccccc3NC(=O)c3cccc(Cl)c3)nc2s1
Potency (Furin (Homo sapiens)): inconclusive [inhibitor, partial curve]
Potency [6]: inactive
activity change, negative = inhibition [5]: inactive: 40.2% [at 1.74 µM]

O=c1c(O)cc(C2Oc3cc(O)cc(O)c3CC2O)cc2c(C3Oc4cc(O)cc(O)c4CC3O)cc(O)c(O)c12 (configuration not stated)
Potency [14]: inactive
Potency [15]: inconclusive [inhibitor, partial curve, poor fit]
Potency [16]: active: 2.51 µM
Potency [17]: active: 35.5 µM
Potency (Furin (Homo sapiens)): inconclusive [inhibitor, full curve]
Potency [1]: inactive
Potency [4]: inactive
Potency [5]: inconclusive [inhibitor, partial curve, poor fit]
